This is an account of results in patent US20220275083A1 (EUTILEX, published 2022).

Assay [1] concerns the target T1, biotinylated 4-1BB antigen (SinoBiologics, Cat. No. 10041-H08H-B) (UniProt Q07011 24-186, biotinylated).
T1 construct: Bought antigen
Nature of the assay: dual antigen ELISA: PD-L1 coated, S12 titrated, detection with biotinylated 4-1BB and avidin-HRP; lack of signal laid by the filing to the missing anti-4-1BB part. For orientation: In an ELISA, binding on a coated surface is turned into a signal by an enzyme label.

For another assay, the target named is T2, 4-1BB antigen (abclon) (UniProt Q07011 24-186).
T2 construct: Bought antigen
Nature of the assay: ELISA, 4-1BB antigen coated, anti-human IgG Fc-HRP detection, 11 points.

For assay [2], the target named is T3, biotinylated PD-L2 (SinoBiologics, Cat. No. 10292-H08H-B) (UniProt Q9BQ51 20-219, biotinylated).
T3 construct: Bought antigen
T3 sequence (looked up): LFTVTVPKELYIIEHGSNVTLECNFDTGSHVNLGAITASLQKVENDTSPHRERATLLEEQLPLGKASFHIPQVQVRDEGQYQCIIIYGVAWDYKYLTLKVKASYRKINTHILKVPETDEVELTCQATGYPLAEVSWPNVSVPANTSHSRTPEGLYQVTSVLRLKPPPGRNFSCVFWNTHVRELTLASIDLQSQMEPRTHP
Nature of the assay: ELISA, human PD-1-Fc coated at 2 ug/ml, biotinylated PD-L2 titrated 0.01-1.00 ug/mL, avidin-HRP.

Sequence of 4-1BB antigen (abclon) (Q07011 24-186): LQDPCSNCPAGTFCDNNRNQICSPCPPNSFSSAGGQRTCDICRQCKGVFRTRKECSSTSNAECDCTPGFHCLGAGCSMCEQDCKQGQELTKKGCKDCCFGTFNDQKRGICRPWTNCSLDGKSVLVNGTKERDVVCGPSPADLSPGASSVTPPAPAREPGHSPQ

B1: S12 (4-1BB null variant of S03) (bispecific antibody)
chain: [here about 100 residues without letters]GSTSGSGKPGSGEGSTKG[here about 100 residues without letters]PFPYFDYWGQGTLVTVSSASGGGGSGGGGSDKTHTCPPCPAPEAAGGPSVFLFPPKPKDTLMISRTPEVTCVVVDVSHEDPEVKFNWYVDGVEVHNAKTKPREEQYNSTYRVVSVLTVLHQDWLNGKEYKCAVSNKALPAPIEKTISKAKGQPREPQVYTLPPSREEMTKNQVSLTCLVKGFYPSDIAVEWESNGQPENNYKTTPPVLDSDGSFFLYSKLTVDKSRWQQGNVFSCSVMHEALHNHYTQKSLSLSPGGGGGSGGGGSFLESPDRPWNAPTFSPALLLVAEGDNATFTCSFSNASESFHVVWHRESPSGQTDTLAAFPEDRSQPGQDHRFRVTRLPNGRDFHMSVVRAQRNDSGTYVCGVISLAPKIQIKESLRAELRVTERRAEVPTAHPSPSPRPAGQFQTLVVG
notes: S03 with the anti-4-1BB antibody substituted by human germline antibody (DP47); keeps euPD-1
Regarding B1, the results for the binding result (in assay [1]; with 4-1BB antigen (abclon)) were “no binding (tested: log 2 ug/ml (100 ug/ml))” and “no binding (tested: log -0.3 ug/mL (0.5 ug/ml))”, respectively.

B2: human PD-1-Fc (SinoBiologics, Cat. No. 10377-H02H) (Fc fusion)
chain: not shown
notes: Bought fusion protein; also called human natural PD1-Fc; natural PD-1; not shown: Fc part of the bought fusion; not described
Turning to B2, in assay [2], the binding result is reported as “binds”.
